# Laboratory results reported in paper PMC4336329 (PLoS ONE, 2015).
# Screen size: about 310,000 compounds; about 14,000 (4.5%) showed an effect of 50% or more. Effects have a minus sign here. The list shows a part of the results.
# Molecular target: human ether-à-go-go-related gene (hERG) potassium channel (human, UniProt Q12809)
# Assay: primary screen, population patch clamp on CHO cells stably expressing hERG
# 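Note: peak tail current of the secondary pulse compared with the same well before compound.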
# Chain of human ether-à-go-go-related gene (hERG) potassium channel (Q12809 whole entry, looked up): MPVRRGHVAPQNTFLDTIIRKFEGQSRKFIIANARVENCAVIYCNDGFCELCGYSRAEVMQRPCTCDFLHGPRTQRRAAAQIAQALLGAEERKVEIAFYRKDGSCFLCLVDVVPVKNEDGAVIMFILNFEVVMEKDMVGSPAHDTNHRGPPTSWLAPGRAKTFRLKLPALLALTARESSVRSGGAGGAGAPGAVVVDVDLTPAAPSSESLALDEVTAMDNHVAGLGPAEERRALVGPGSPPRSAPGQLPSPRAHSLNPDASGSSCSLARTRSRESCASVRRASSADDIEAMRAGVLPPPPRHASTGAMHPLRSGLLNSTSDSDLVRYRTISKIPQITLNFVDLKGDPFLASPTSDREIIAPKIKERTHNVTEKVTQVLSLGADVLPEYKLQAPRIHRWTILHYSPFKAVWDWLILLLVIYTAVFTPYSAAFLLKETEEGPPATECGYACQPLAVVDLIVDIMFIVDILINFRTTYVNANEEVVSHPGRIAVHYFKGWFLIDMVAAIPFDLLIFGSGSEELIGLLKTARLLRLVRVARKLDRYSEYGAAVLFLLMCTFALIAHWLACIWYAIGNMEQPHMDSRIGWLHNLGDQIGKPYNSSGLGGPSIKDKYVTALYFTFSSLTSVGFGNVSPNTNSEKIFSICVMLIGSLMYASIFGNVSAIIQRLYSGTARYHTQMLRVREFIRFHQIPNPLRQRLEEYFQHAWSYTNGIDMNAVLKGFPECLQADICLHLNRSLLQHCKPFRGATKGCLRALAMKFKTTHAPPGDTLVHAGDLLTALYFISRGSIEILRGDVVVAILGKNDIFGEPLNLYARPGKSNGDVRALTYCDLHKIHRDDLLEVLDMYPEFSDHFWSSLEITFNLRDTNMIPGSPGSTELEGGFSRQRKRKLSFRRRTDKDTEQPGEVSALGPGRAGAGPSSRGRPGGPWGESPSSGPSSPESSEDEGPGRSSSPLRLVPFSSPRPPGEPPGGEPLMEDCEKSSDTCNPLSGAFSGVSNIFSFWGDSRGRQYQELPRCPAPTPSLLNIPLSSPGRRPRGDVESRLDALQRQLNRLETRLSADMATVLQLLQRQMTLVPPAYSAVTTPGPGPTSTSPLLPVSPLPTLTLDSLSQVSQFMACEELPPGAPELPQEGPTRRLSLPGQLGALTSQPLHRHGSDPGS
row,Structure (SMILES),"hERG current change (%, negative = inhibition) at 10uM [%]"
1,CCN1CCN(c2oc(COc3ccc(Cl)cc3)nc2C#N)CC1,-77
2,O=S(=O)(Cc1ccc(Cl)cc1)C1CCCCC1O (stereo not shown),4.77
3,COc1cc2cc(CN(Cc3nnnn3Cc3ccco3)C3CCCCC3)c(=O)[nH]c2cc1OC,-19.9
4,CCn1c2ccccc2c2cc(NC(=O)CSc3nnc(-c4ccc(OC)c(OC)c4)n3N)ccc21,0.254
5,COc1ccc(CN2[C@@H](CC(=O)O)c3cc(F)ccc3S2(=O)=O)cc1,14.4
6,O=c1nc(N/N=C/c2ccccn2)cn[nH]1,7.23
7,CCOc1ccc(Br)cc1S(=O)(=O)Nc1ccc(C(=O)OCC(=O)N(C)c2ccccc2)cc1,12.7
8,Cc1ccc(C)c(N(CC(=O)NCc2ccc3c(c2)OCO3)C(=O)CCC(=O)Nc2ccccn2)c1,-19
9,COc1cccc(-c2c(-c3cc(OC)cc(OC)c3)n(C)c3ccc(-c4cccc5[nH]ccc45)cc23)c1,12.2
10,Cc1ccc2nc(Nc3ccc(C)c(Cl)c3)c3nncn3c2c1,21
11,CC(=O)c1c(C)[nH]c(C(=O)Nc2cccc(S(=O)(=O)N(C)c3ccccc3)c2)c1C,-11.3
12,Cn1c(CN2CCCC2)nc2cc(NS(=O)(=O)c3ccccc3)ccc21,1.49
13,O=c1c(Cl)nc2cc(Cl)ccc2n1CCNc1ncc(C(F)(F)F)cc1Cl,20.4
14,CC(C)(C)OC(=O)N1C[C@H](O)C[C@H]1C(=O)OCC(=O)c1ccc([N+](=O)[O-])cc1,-63.4
15,Brc1ccccc1OCCCCCN1CCCC1,-33.9
16,Cc1ccc(C(=O)OCN2C(=O)c3ccccc3C2=O)c(O)c1,22.6
17,Nc1ccc2oc(=O)c3ccccc3c2c1,-4.73
18,Cn1c(=O)oc2cc(S(=O)(=O)NCc3ccc(C(=O)O)cc3)ccc21,54.7
19,COC(=O)C1=C(c2cccc(OC)c2OC)C[C@@H]2CC[C@H]1N2C(=O)N1CCOCC1,-1.1
20,CCc1ccc(NS(=O)(=O)c2ccc3[nH]cc(C(=O)N4CCCCC4)c(=O)c3c2)cc1,0.775
21,O=c1[nH]c(N/N=C/c2ccc(O)cc2)nc2ccccc12,-3.67
22,Cc1nn(C(=O)c2ccco2)c(C)c1Sc1ccccc1,15.7

row,Structure (SMILES),"hERG current change (%, negative = inhibition) at 10uM [%]"
1,O=C(CSc1nnc(-c2ccc(C(F)(F)F)cn2)o1)Nc1ccccc1Cl,23.8
2,CC(C)Cn1c(=O)c2sccc2n2c(CCCC(=O)N3CCC(N4CCCCC4)CC3)nnc12,4.55
3,CCC(C)[C@H](NC(=O)NCc1ccco1)C(=O)OC (stereo partly shown),2.22
4,O=c1[nH]c(=O)n(Cc2ccco2)c(O)c1/C=N/N1CCCCC1,3.21
5,CNC(=O)c1c(O)c2cccc3c2n(c1=O)CC3,-8.81
6,O=C(CCCCCn1c(=S)[nH]c2ccc(N3CCOCC3)cc2c1=O)NC1CCN(Cc2ccccc2)CC1,-9.35
7,COc1ccc(NC(=O)CSc2nnnn2C2CCCCC2)c(OC)c1,5.68
8,COc1ccccc1NC(=S)NCc1ccc2c(c1)OCO2,2.34
9,c1ccc(-c2nc[nH]c2-c2ccccc2)cc1,0.582
10,CCCOC(=O)c1ccc(NC(=O)c2cc(OC)c(OC)c(OC)c2Br)cc1,8.82
11,NC(=O)NC(=O)CC1S/C(=N/N=C2/NC(=O)CS2)NC1=O (stereo not shown),11.5
12,CC(c1nnc(SCC(=O)Nc2ccc3[nH]c(=O)[nH]c3c2)n1Cc1ccccc1)N(C)C (stereo not shown),5.17
13,O=C(Nc1ccc(S(=O)(=O)Nc2ncccn2)cc1)c1cncc(Br)c1,10.6
14,Cc1ccc2nc3c(c(C(=O)OCC(=O)NC4CCS(=O)(=O)C4)c2c1)CCCC3 (stereo not shown),-3.23
15,Cc1ccccc1OCCn1c(CCNC(=O)C(C)C)nc2ccccc21,-6.24
16,O=C(COc1ccc(Br)cc1Br)NC1CCS(=O)(=O)C1 (stereo not shown),-13.4
17,COC(=O)c1ccc(OCC(O)CNC2CCCC2)cc1.Cl (stereo not shown),13.3
18,O=C(OCc1nnc(-c2ccccc2)o1)c1cc(=O)[nH]c2ccccc12,16.7
19,CC1CCCC(C)N1C(=O)COc1ccc(F)cc1 (stereo not shown),4.28
20,CCC(C)NC(=O)c1cnn2c1NC(c1cccs1)CC2C(F)(F)F (stereo not shown),-11.3
21,CCOc1ccc(OCC)c(NC(=O)CCCN2C(=S)NC(C)(C)CC2C)c1 (stereo not shown),2.95
22,COc1ccc(-c2noc(C3CCCN(S(=O)(=O)c4ccc(C)c(Cl)c4)C3)n2)cc1OC (stereo not shown),6.21

row,Structure (SMILES),"hERG current change (%, negative = inhibition) at 10uM [%]"
1,C=CCn1c(C(CCCC)CC(O)COCC(C)C)n[nH]c1=S (stereo not shown),1.88
2,COc1ccc(C)cc1NCc1ccc([N+](=O)[O-])cc1,-0.771
3,OCCNc1nc(Nc2cc(Cl)ccc2OC2CCCC2)nc(N2CCCC2)n1,13.5
4,O=C(CSc1nnc2ccccn12)N1CCOCC1,8.28
5,COc1ccc(NC(=O)Nn2cnnc2)cc1OC,20.7
6,Cc1ccc(NC(=O)C(C)N2CCOCC2)c(C(=O)c2ccccc2)c1 (stereo not shown),-26.9
7,CCCc1cc(=O)[nH]c(SC/C=C/c2ccccc2)n1,9.33
8,COc1ccc(S(=O)(=O)N2CN3CCN(C3)C2)cc1,6.13
9,O=C(CN1C(=O)NC2(CCCCC2)C1=O)NCCCSc1ccccc1,-18.4
10,CC(=O)Nc1cccc(NC(=O)CSc2nc(=O)n(CCN3CCOCC3)c3c2CCCC3)c1,0.233
11,O=C(CSc1ncnc2c1oc1ccccc12)Nc1cccc(Cl)c1,-2.16
12,O=C(c1cc2sccc2n1Cc1ccc(F)cc1)N1CCN(c2nc3ccccc3s2)CC1,-20.8
13,Cc1ccc2c(C)c(C(=O)N3CCN(Cc4ccc5c(c4)OCO5)CC3)oc2c1C,2.23
14,CSC1=C(C#N)C(c2ccc(C(C)C)cc2)CC(=O)N1 (stereo not shown),5.77
15,Br.c1ccc2c(c1)ncn2CCN1CCCCC1,5.39
16,CCN(CC)C(=O)CCCC(=O)N(CC)CC,19.3
17,O=C(Nc1ccc(Cl)cc1)N1CCOC12CCC1(CC2)OCCO1,4.33
18,Cc1cc(C)n(CCCNC(=O)c2ccco2)n1,4.14
19,Cc1nc(N2CCN(Cc3ccccc3)CC2)nc2c1CCC2,-36.7
20,CC1CCN(C(=O)CCc2nc3cc(S(=O)(=O)N(C)C)ccc3n2C)CC1,-3.13
21,O=C(Cn1nc(-c2ccc(Cl)cc2)ccc1=O)N1CCC2(CC1)OCCO2,-6.85
22,O=C(Nc1ccccc1O)c1ccc(C(=O)c2ccccc2)o1,11.2

row,Structure (SMILES),"hERG current change (%, negative = inhibition) at 10uM [%]"
1,COc1ccccc1C(=O)Nc1ccc(C(=O)O)cc1,9.84
2,CO/N=C1\CCn2c1c(C)c1ccccc12,7.1
3,O=C(CN1C(=O)c2cccnc2Oc2ccc(Cl)cc21)N1CCCCCC1,-14.8
4,O=C(CCc1ccccc1)Nc1cc(C(=O)O)cc(C(=O)O)c1,20.4
5,COc1cc(SC)ccc1C(=O)OCC(=O)NCC(C)C,45.1
6,CS(=O)(=O)n1nc(-c2ccc(Cl)cc2)nc1N,3.95
7,CCOC(=O)CSc1nc2ccccc2c(=O)n1-c1ccc(C(=O)NCCOC)cc1,-19.1
8,CCCn1cnc2sc(C(N)=O)c(C)c2c1=O,12.1
9,c1ccc2c(c1)OCC(c1csc3ncnc(N4CCOCC4)c13)O2 (stereo not shown),13.8
10,O=C(CN1C(=O)S/C(=C\c2ccc(F)cc2)C1=O)NC1C=CS(=O)(=O)C1 (stereo not shown),15.4
11,COc1ccc(Cl)cc1NC(=O)CSc1nnc(CNC(=O)c2cccs2)o1,-39.8
12,CC(=O)c1sc2nsc(SCCN3CCCCC3)c2c1N,-3.38
13,N#CC1(NC(=O)COC(=O)CN2C(=O)c3ccccc3C2=O)CCCCC1,-12.2
14,COC(=O)C1CCN(C(=O)c2oc3c(Cl)cc(C)cc3c2C)CC1,-16.6
15,Br.O=C(Cn1c(NCCO)nc2ccccc21)c1ccc([N+](=O)[O-])cc1,12
16,COc1ccc2[nH]c3c(c2c1)CCN1C(=O)N([C@@H](C)C(=O)NCc2c(F)cccc2Cl)C(=O)[C@]31C,-21.3
17,Cc1cccc(OCC(=O)N/N=C/c2sc(=O)n(Cc3cccc(C(=O)O)c3)c2Cl)c1,13.2
18,CCC(c1nnc(SCC(=O)Nc2ccc(N3CCOCC3)cc2)n1Cc1ccccc1)N(C)C (stereo not shown),-0.198
19,CC(OC(=O)c1cc(Br)ccc1O)C(=O)NC1(C#N)CCCCC1 (stereo not shown),27.3
20,C/C(=N/NC(=O)c1ccc(C)s1)c1cccc(NC(=O)COc2ccc(Cl)cc2Cl)c1,7.81
21,COc1ccc(-c2cc(C(F)(F)F)n3nc(C(=O)N4CCN(C(=O)c5ccco5)CC4)cc3n2)cc1,-0.929
22,Cc1ccc(N2CN=C3SCC(=O)N3C2)cc1C,-9.34
